Reference: patent US20240190842A1, “SUBSTITUTED QUINOLINONE-8-CARBONITRILE DERIVATIVES HAVING ANDROGEN DEGRADATION ACTIVITY AND USES THEREOF” (Accutar Biotechnology Inc., priority 2022, published 2024)
For at least one compound, name, drawing or mass did not settle the structure.

Key:
Assay type in all cases: cell-based
[1] = target: T1, AR wildtype (PC3 AR-WT cells) (Homo sapiens, UniProt P10275); assay: PC3 AR-WT cellular degradation assay (in-cell immunofluorescence of AR); details: 24 hours incubation
T1 construct: full length AR wildtype was cloned into CD532A-2 lentivector; expressed in transfected cells; host or cells: PC3 cells (ATCC), lentiviral transduction, puromycin selected
T1 sequence (P10275 1-920): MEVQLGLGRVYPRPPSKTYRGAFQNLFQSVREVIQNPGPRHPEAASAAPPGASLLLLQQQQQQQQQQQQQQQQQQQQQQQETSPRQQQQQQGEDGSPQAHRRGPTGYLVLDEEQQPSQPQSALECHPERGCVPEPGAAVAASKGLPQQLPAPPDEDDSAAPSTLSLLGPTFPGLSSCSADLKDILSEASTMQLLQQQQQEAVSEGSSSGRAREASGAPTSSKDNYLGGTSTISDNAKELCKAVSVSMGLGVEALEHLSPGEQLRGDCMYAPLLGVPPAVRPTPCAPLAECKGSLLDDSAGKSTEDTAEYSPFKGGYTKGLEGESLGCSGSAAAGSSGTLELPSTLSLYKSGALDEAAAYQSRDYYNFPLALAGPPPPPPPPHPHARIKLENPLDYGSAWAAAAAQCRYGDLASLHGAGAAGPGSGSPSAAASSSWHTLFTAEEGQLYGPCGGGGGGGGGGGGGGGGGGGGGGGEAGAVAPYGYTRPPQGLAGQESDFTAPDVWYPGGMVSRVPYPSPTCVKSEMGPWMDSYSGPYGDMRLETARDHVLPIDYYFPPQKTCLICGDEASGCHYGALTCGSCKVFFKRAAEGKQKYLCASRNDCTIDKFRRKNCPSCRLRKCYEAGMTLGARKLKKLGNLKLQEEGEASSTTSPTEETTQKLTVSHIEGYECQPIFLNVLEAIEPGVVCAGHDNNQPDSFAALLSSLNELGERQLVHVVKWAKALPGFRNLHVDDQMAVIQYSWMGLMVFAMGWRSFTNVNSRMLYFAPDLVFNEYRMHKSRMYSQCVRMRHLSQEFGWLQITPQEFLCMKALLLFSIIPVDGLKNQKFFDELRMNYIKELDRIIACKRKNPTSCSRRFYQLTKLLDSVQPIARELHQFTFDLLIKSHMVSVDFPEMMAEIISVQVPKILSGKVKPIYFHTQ

[2] = tested on: LNCAP cells; assay: Inhibition of R1881 stimulated cell growth in LNCAP cells (CellTiter-Glo); details: 10% CSS, 6 days
Procedure: (§1) LNCAP and VCAP cells were seeded in 96-well plates at 5000 (LNCAP) and 6000 (VCAP) cells/well in phenol red-free RPM11640 supplemented with 10% charcoal stripped serum (CSS), and then incubated at 37° C. overnight. The following day, the test compound was administered to the cells by using 1000× compound stock solution prepared in DMSO at various concentrations. 1000× compound stock solution was first diluted 1:100 in phenol red-free RPM11640 supplemented with 10% CSS and 1 nM R1881 to prepare the 10× treatment solutions containing serial dilutions of AC176 together in the presence of 1 nM, and then 10 uL compound medium was added to each well in the cell plates. After administration of the compound, the cells were then incubated at 37° C. for 6 days. Upon completion, the plates were equilibrated at room temperature for approximately 10 minutes. 100 ul of CellTiter-Glo® 3D Reagent (Promega) was added to each well. The plates were then incubated at room temperature for 30 minutes and luminescence was recorded by EnSpire plate reader (PerkinElmer). The results are shown in Table 5, which summarizes the growth inhibition (G150) in LNCAP and VCAP cells with exemplary compounds of the present disclosure.

[3] = tested on: VCAP cells; assay: Inhibition of R1881 stimulated cell growth in VCAP cells (CellTiter-Glo); details: 10% CSS, 6 days
Procedure: as §1

Work on CC1(C)[C@H](NC(=O)c2ccc(N3CC4C(CN5CCN(c6ccc7c(c6)CN([C@H]6CCC(=O)NC6=O)C7=O)CC5)C4C3)c(F)c2)C(C)(C)[C@H]1Oc1ccc(C#N)c2[nH]c(=O)ccc12 (relative stereo) [Compound 10, N-((1,3-trans)-3-((8-cyano-2-oxo-1,2-dihydroquinolin-5-yl)oxy)-2,2,4,4-tetramethylcyclobutyl)-4-((1α,5α,6α)-6-((4-(2-((S)-2,6-dioxopiperidin-3-yl)-1-oxoisoindolin-5-yl)piperazin-1-yl)methyl)-3-azabicyclo[3.1.0]hexan-3-yl)-3-fluorobenzamide] yielded a DC50 [1] of at most 5 nM, a GI50 [2] of at most 50 nM and a GI50 [3] of at most 50 nM.
CC1(C)[C@H](NC(=O)c2ccc(N3CC[C@H](CN4CCN(c5ccc6c(c5)CN([C@H]5CCC(=O)NC5=O)C6=O)CC4)C3)cc2)C(C)(C)[C@H]1Oc1ccc(C#N)c2[nH]c(=O)ccc12 (relative stereo) [Compound 12, N-((1,3-trans)-3-((8-cyano-2-oxo-1,2-dihydroquinolin-5-yl)oxy)-2,2,4,4-tetramethylcyclobutyl)-4-((R)-3-((4-(2-((S)-2,6-dioxopiperidin-3-yl)-1-oxoisoindolin-5-yl)piperazin-1-yl)methyl)pyrrolidin-1-yl)benzamide] showed a DC50 [1] of at most 5 nM, a GI50 [2] of 50 to 500 nM and a GI50 [3] of at most 50 nM.
CC1(C)[C@H](NC(=O)c2ccc(N3CC[C@@H](CN4CCN(c5ccc6c(c5)CN([C@H]5CCC(=O)NC5=O)C6=O)CC4)C3)cc2)C(C)(C)[C@H]1Oc1ccc(C#N)c2[nH]c(=O)ccc12 (relative stereo) [Compound 13, N-((1,3-trans)-3-((8-cyano-2-oxo-1,2-dihydroquinolin-5-yl)oxy)-2,2,4,4-tetramethylcyclobutyl)-4-((S)-3-((4-(2-((S)-2,6-dioxopiperidin-3-yl)-1-oxoisoindolin-5-yl)piperazin-1-yl)methyl)pyrrolidin-1-yl)benzamide] gave a DC50 [1] of 5 to 50 nM, a GI50 [2] of over 500 nM and a GI50 [3] of 50 to 500 nM.
In the case of CC1(C)[C@H](NC(=O)c2ccc(N3CC[C@H](CN4CCN(c5ccc6c(c5)CN([C@H]5CCC(=O)NC5=O)C6=O)CC4)C3)c(F)c2)C(C)(C)[C@H]1Oc1ccc(C#N)c2[nH]c(=O)ccc12 (relative stereo) [Compound 14, N-((1,3-trans)-3-((8-cyano-2-oxo-1,2-dihydroquinolin-5-yl)oxy)-2,2,4,4-tetramethylcyclobutyl)-4-((R)-3-((4-(2-((S)-2,6-dioxopiperidin-3-yl)-1-oxoisoindolin-5-yl)piperazin-1-yl)methyl)pyrrolidin-1-yl)-3-fluorobenzamide], the DC50 [1] is reported as at most 5 nM, the GI50 [2] is reported as 50 to 500 nM and the GI50 [3] is reported as at most 50 nM.
For CC1(C)[C@H](NC(=O)c2ccc(N3CC4C(CN5CCN(c6ccc7c(c6)CN([C@H]6CCC(=O)NC6=O)C7=O)CC5)C4C3)cc2)C(C)(C)[C@H]1Oc1ccc(C#N)c2[nH]ccc(=O)c12 (relative stereo) [Compound 26, N-((1,3-trans)-3-((8-cyano-4-oxo-1,4-dihydroquinolin-5-yl)oxy)-2,2,4,4-tetramethylcyclobutyl)-4-((1α,5α,6α)-6-((4-(2-((S)-2,6-dioxopiperidin-3-yl)-1-oxoisoindolin-5-yl)piperazin-1-yl)methyl)-3-azabicyclo[3.1.0]hexan-3-yl)benzamide], the DC50 [1] was at most 5 nM, the GI50 [2] was over 500 nM and the GI50 [3] was 50 to 500 nM.
Compound CC1(C)C(NC(=O)c2ccc(N3CC[C@H](CN4CCN(c5ccc6c(c5)CN([C@H]5CCC(=O)NC5=O)C6=O)CC4)C3)cc2)C(C)(C)C1Oc1ccc(C#N)c2[nH]ccc(=O)c12 (relative stereo) [Compound 32, N-((1,3-trans)-3-((8-cyano-4-oxo-1,4-dihydroquinolin-5-yl)oxy)-2,2,4,4-tetramethylcyclobutyl)-4-((R)-3-((4-(2-((S)-2,6-dioxopiperidin-3-yl)-1-oxoisoindolin-5-yl)piperazin-1-yl)methyl)pyrrolidin-1-yl)benzamide] has a DC50 [1] of at most 5 nM, a GI50 [2] of 50 to 500 nM and a GI50 [3] of 50 to 500 nM.
CC1(C)C(NC(=O)c2ccc(N3CC[C@@H](CN4CCN(c5ccc6c(c5)CN([C@H]5CCC(=O)NC5=O)C6=O)CC4)C3)cc2)C(C)(C)C1Oc1ccc(C#N)c2[nH]ccc(=O)c12 (relative stereo) [Compound 33, N-((1,3-trans)-3-((8-cyano-4-oxo-1,4-dihydroquinolin-5-yl)oxy)-2,2,4,4-tetramethylcyclobutyl)-4-((S)-3-((4-(2-((S)-2,6-dioxopiperidin-3-yl)-1-oxoisoindolin-5-yl)piperazin-1-yl)methyl)pyrrolidin-1-yl)benzamide] showed a DC50 [1] of 5 to 50 nM, a GI50 [2] of 50 to 500 nM and a GI50 [3] of 50 to 500 nM.
Compound CC1(C)C(NC(=O)c2ccc(N3CC(CN4CCN(c5ccc6c(c5)CN([C@H]5CCC(=O)NC5=O)C6=O)CC4)C3)cc2)C(C)(C)C1Oc1ccc(C#N)c2[nH]ccc(=O)c12 (stereo in doubt) [Compound 25, N-((1,3-trans)-3-((8-cyano-4-oxo-1,4-dihydroquinolin-5-yl)oxy)-2,2,4,4-tetramethylcyclobutyl)-4-(3-((4-(2-((S)-2,6-dioxopiperidin-3-yl)-1-oxoisoindolin-5-yl)piperazin-1-yl)methyl)azetidin-1-yl)benzamide] has a DC50 [1] of at most 5 nM, a GI50 [2] of at most 50 nM and a GI50 [3] of 50 to 500 nM.
Cn1c(=O)ccc2c(OC3C(C)(C)C(NC(=O)c4ccc(N5CCC(CN6CCN(c7ccc8c(c7)CN([C@H]7CCC(=O)NC7=O)C8=O)CC6)CC5)c(F)c4)C3(C)C)ccc(C#N)c21 (stereo in doubt) [Compound 35, N-((1,3-trans)-3-((8-cyano-1-methyl-2-oxo-1,2-dihydroquinolin-5-yl)oxy)-2,2,4,4-tetramethylcyclobutyl)-4-(4-((4-(2-((S)-2,6-dioxopiperidin-3-yl)-1-oxoisoindolin-5-yl)piperazin-1-yl)methyl)piperidin-1-yl)-3-fluorobenzamide] gave a GI50 [2] of at most 50 nM and a GI50 [3] of at most 50 nM.
For Cn1ccc(=O)c2c(OC3C(C)(C)C(NC(=O)c4ccc(N5CCC(CN6CCN(c7ccc8c(c7)CN([C@H]7CCC(=O)NC7=O)C8=O)CC6)CC5)c(F)c4)C3(C)C)ccc(C#N)c21 (stereo in doubt) [Compound 40, N-((1,3-trans)-3-((8-cyano-1-methyl-4-oxo-1,4-dihydroquinolin-5-yl)oxy)-2,2,4,4-tetramethylcyclobutyl)-4-(4-((4-(2-((S)-2,6-dioxopiperidin-3-yl)-1-oxoisoindolin-5-yl)piperazin-1-yl)methyl)piperidin-1-yl)-3-fluorobenzamide], the GI50 [2] was 50 to 500 nM and the GI50 [3] was at most 50 nM.
Work on CC1(C)C(NC(=O)c2ccc(N3CC4C(CN5CCN(c6ccc7c(c6)CN(C6CCC(=O)NC6=O)C7=O)CC5)C4C3)cc2)C(C)(C)C1Oc1ccc(C#N)c2[nH]c(=O)ccc12 [Compound 7, N-((1,3-trans)-3-((8-cyano-2-oxo-1,2-dihydroquinolin-5-yl)oxy)-2,2,4,4-tetramethylcyclobutyl)-4-((1α,5α,6α)-6-((4-(2-((S)-2,6-dioxopiperidin-3-yl)-1-oxoisoindolin-5-yl)piperazin-1-yl)methyl)-3-azabicyclo[3.1.0]hexan-3-yl)benzamide] yielded a DC50 [1] of 5 to 50 nM, a GI50 [2] of over 500 nM and a GI50 [3] of 50 to 500 nM.
